{"source": "PubChem BioAssay AID485281", "about": "(National Center for Advancing Translational Sciences (NCATS), 2010)", "note": "The campaign covered roughly 350,000 compounds. About 260 (0.074%) were called active. The shares of active, inactive and inconclusive entries below differ from those in the screen. The call rests on the fitted dose curve; in most records, active means well fitted inhibition curve with a large enough effect; inconclusive means small, poorly fitted or top-dose-only effect; inactive means no such curve, though single readings can be large or run the other way. Where the call is inconclusive, the potency comes from a doubtful curve fit. Potency means the concentration at half of the fitted maximal effect; tags describe the fitted curve by direction and shape.", "data": [{"target": "Ferritin light chain (Equus caballus) (UniProt P02791)", "sequence (P02791 whole entry, looked up)": "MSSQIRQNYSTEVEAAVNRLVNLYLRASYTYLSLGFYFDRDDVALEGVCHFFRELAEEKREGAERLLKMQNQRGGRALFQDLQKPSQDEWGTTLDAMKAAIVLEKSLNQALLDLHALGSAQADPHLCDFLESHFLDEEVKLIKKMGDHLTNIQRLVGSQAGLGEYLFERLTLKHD", "test": "qHTS Assay for Identification of Novel General Anesthetics; further: nearly all actives have a fitted effect of over 20% in size", "details": "apoferritin/1-aminoanthracene competitive binding, fluorescence; series mostly up to 77.5 µM", "outline": "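Read-out: endpoint 1-AMA fluorescence, excitation 380 nm and emission 535 nm, after compounds sit 10 min at room temperature with 10 uM horse-spleen apoferritin in 50% saturated 1-AMA/PBS. Values come from four-parameter Hill fits.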", "values": [{"smiles": "O=C(COC(=O)c1cccc(Br)c1)NCCc1ccc(F)cc1", "Potency": "inconclusive: 14.1 µM [inhibitor, partial curve]"}, {"smiles": "COc1ccccc1NC(=O)Cn1cnc2c(oc3ccccc32)c1=O", "Potency": "inconclusive: 20 µM [inhibitor, partial curve]"}, {"smiles": "Cc1cccc(Cc2c(C)nc3c(C(=O)NCc4ccco4)cnn3c2C)c1", "Potency": "inconclusive: 11.2 µM [inhibitor, partial curve]"}, {"smiles": "COc1cccc(C2=NS(=O)(=O)N(C)C(C(=O)Nc3cccc(O)c3)=C2)c1", "Potency": "inconclusive: 2.51 µM [inhibitor, full curve]"}, {"smiles": "Cc1ccc(NC(C)c2cc(Cl)ccc2O)cc1", "note": "(stereo not drawn)", "Potency": "inconclusive: 14.1 µM [inhibitor, partial curve]"}, {"smiles": "Cc1ccc(-c2nnc(SCC(=O)NCCC(C)C)nc2-c2ccc(C)cc2)cc1", "Potency": "inconclusive: 2 µM [inhibitor, full curve]"}, {"smiles": "CN1CCN(CCC(=O)Nc2ccc(OCc3ccccc3)cc2)CC1", "Potency": "inconclusive: 15.8 µM [inhibitor, partial curve]"}, {"smiles": "Cc1cccc(OCCCC(=O)NC(C)c2ccccc2)c1", "note": "(stereo not drawn)", "Potency": "inconclusive: 50.1 µM [inhibitor, single point]"}, {"smiles": "Cc1cc(NC(=O)CN2C(=O)NC(C)(c3ccc(Cl)cc3)C2=O)no1", "note": "(stereo not drawn)", "Potency": "inconclusive: 20 µM [inhibitor, partial curve]"}, {"smiles": "Cc1cc(Nc2ccc(O)cc2)n2c(nc3ccccc32)c1C#N", "Potency": "inactive"}, {"smiles": "Cc1c(C(=O)OCC(=O)N2C(C)CCCC2C)oc2ccccc12", "note": "(stereo not drawn)", "Potency": "inconclusive: 28.2 µM [inhibitor, partial curve]"}, {"smiles": "COc1ccc2c(c1)CCc1c(C(=O)N3CCCCCC3)noc1-2", "Potency": "inconclusive: 50.1 µM [inhibitor, single point]"}, {"smiles": "CC(=O)Nc1cccc(NC(=O)CSc2ncc(-c3ccccc3)[nH]2)c1", "Potency": "inconclusive: 35.5 µM [inhibitor, partial curve]"}, {"smiles": "CCOc1cc(C=O)ccc1OCCSc1ccc(C)cc1", "Potency": "inconclusive: 25.1 µM [inhibitor, partial curve]"}, {"smiles": "Cc1ccc(C(=O)COc2nc(C)cc(C)c2C#N)cc1", "Potency": "inconclusive: 17.8 µM [inhibitor, partial curve]"}, {"smiles": "CCOC(=O)c1ccc(N2C(=O)c3[nH]nc(-c4ccccc4)c3C2c2cccs2)cc1", "note": "(stereo not drawn)", "Potency": "inactive"}, {"smiles": "CC1CCCCN1CC(=O)Nc1ccc(N2CCCCCC2)cc1", "note": "(stereo not drawn)", "Potency": "inconclusive: 20 µM [inhibitor, partial curve]"}, {"smiles": "Oc1c(C(Nc2cccc(C(F)(F)F)c2)c2cccnc2)ccc2cccnc12", "note": "(stereo not drawn)", "Potency": "inconclusive: 50.1 µM [inhibitor, single point]"}]}]}
